# Measured values from the supplement of paper PMC4604168 (melanoma cell lines).
# Some of the results follow. Most values come without repeats; read them as rough.
# Test system: G361
# Test: cell count relative to DMSO control; melanoma cells; higher = more viable cells
# Conditions: library dose: standard library concentration; 72 h
# 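Also: cells treated in 1,536-well plates, then fixed and DAPI-stained, with nuclei counted from automated high-throughput microscope images.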
row,Compound,cell count [%]
1,"C[C@@H](Oc1cc(-c2cnn(C3CCNCC3)c2)cnc1N)c1c(Cl)ccc(F)c1Cl [Crizotinib] + Clc1ccc(Nc2nnc(Cc3ccncc3)c3ccccc23)cc1 [vatalanib] (first compound 1 µM, partner dose 10 µM)",53.9
2,"C=CCNC1=C2C[C@@H](C)C[C@H](OC)[C@H](O)[C@@H](C)/C=C(\C)[C@H](OC(N)=O)[C@@H](OC)/C=C\C=C(/C)C(=O)NC(=CC1=O)C2=O [Tanespimycin] + CN(NC(=O)CC(=O)NN(C)C(=S)c1ccccc1)C(=S)c1ccccc1 [STA4783] (first compound 0.01 µM, partner dose 0.03 µM)",42.5
3,"CS(=O)(=O)CCNCc1ccc(-c2ccc3ncnc(Nc4ccc(OCc5cccc(F)c5)c(Cl)c4)c3c2)o1 [lapatinib] + O=C(O)C(=O)Nc1sc2c(c1C(=O)O)CCNC2 [TCS401] (first compound 4 µM, partner dose 8.33333 µM)",71
4,"CN1CCN(c2ccc3nc(-c4c(N)c5c(F)cccc5[nH]c4=O)[nH]c3c2)CC1 [Dovitinib] + CC1(C)NC(=O)N(c2ccc([N+](=O)[O-])c(C(F)(F)F)c2)C1=O [nilutamide] (first compound 0.5 µM, partner dose 5 µM)",61.2
5,"CS(=O)(=O)CCNCc1ccc(-c2ccc3ncnc(Nc4ccc(OCc5cccc(F)c5)c(Cl)c4)c3c2)o1 [lapatinib] + C[C@@H]1CCN(C(=O)CC#N)C[C@@H]1N(C)c1ncnc2[nH]ccc12 [CP690550] (first compound 4 µM, partner dose 5 µM)",68.8
6,"C[C@@H](Oc1cc(-c2cnn(C3CCNCC3)c2)cnc1N)c1c(Cl)ccc(F)c1Cl [Crizotinib] + C[C@@H]1CCN(C(=O)CC#N)C[C@@H]1N(C)c1ncnc2[nH]ccc12 [CP690550] (first compound 1 µM, partner dose 5 µM)",107
7,"C[C@@H](Oc1cc(-c2cnn(C3CCNCC3)c2)cnc1N)c1c(Cl)ccc(F)c1Cl [Crizotinib] + NC(=O)Nc1cc(-c2cccc(F)c2)sc1C(=O)N[C@H]1CCCNC1 [AZD7762] (first compound 1 µM, partner dose 0.1 µM)",114
8,"CN1CCN(c2ccc3nc(-c4c(N)c5c(F)cccc5[nH]c4=O)[nH]c3c2)CC1 [Dovitinib] + N#Cc1c(O)c2c(-c3ccc(-c4ccccc4O)cc3)csc2[nH]c1=O [A769662] (first compound 0.5 µM, partner dose 10 µM)",57.5
9,"CN1CCN(c2ccc3nc(-c4c(N)c5c(F)cccc5[nH]c4=O)[nH]c3c2)CC1 [Dovitinib] + C#Cc1cccc(Nc2ncnc3cc(OCCOC)c(OCCOC)cc23)c1 [erlotinib] (first compound 0.5 µM, partner dose 4 µM)",43.1
10,"CN1CCN(c2ccc3nc(-c4c(N)c5c(F)cccc5[nH]c4=O)[nH]c3c2)CC1 [Dovitinib] + O=C(O)C(=O)Nc1sc2c(c1C(=O)O)CCNC2 [TCS401] (first compound 0.5 µM, partner dose 8.33333 µM)",68.6
11,"C[C@@H](Oc1cc(-c2cnn(C3CCNCC3)c2)cnc1N)c1c(Cl)ccc(F)c1Cl [Crizotinib] + Cn1nnc2c(C(N)=O)ncn2c1=O [temozolomide] (first compound 1 µM, partner dose 10 µM)",73.2
12,"C=CCNC1=C2C[C@@H](C)C[C@H](OC)[C@H](O)[C@@H](C)/C=C(\C)[C@H](OC(N)=O)[C@@H](OC)/C=C\C=C(/C)C(=O)NC(=CC1=O)C2=O [Tanespimycin] + OCCn1cc(-c2cnc3nnn(Cc4ccc5ncccc5c4)c3n2)cn1 [PF04217903] (first compound 0.01 µM, partner dose 5 µM)",70.8
13,"C[C@@H](Oc1cc(-c2cnn(C3CCNCC3)c2)cnc1N)c1c(Cl)ccc(F)c1Cl [Crizotinib] + C=CCn1c(=O)c2cnc(Nc3ccc(N4CCN(C)CC4)cc3)nc2n1-c1cccc(C(C)(C)O)n1 [MK1775] (first compound 1 µM, partner dose 0.1 µM)",79.5
14,"C=CCNC1=C2C[C@@H](C)C[C@H](OC)[C@H](O)[C@@H](C)/C=C(\C)[C@H](OC(N)=O)[C@@H](OC)/C=C\C=C(/C)C(=O)NC(=CC1=O)C2=O [Tanespimycin] + OCc1c[nH]c2ccccc12 [Indole-3-carbinol] (first compound 0.01 µM, partner dose 4 µM)",69.5
15,"CS(=O)(=O)CCNCc1ccc(-c2ccc3ncnc(Nc4ccc(OCc5cccc(F)c5)c(Cl)c4)c3c2)o1 [lapatinib] + NC(=O)Nc1cc(-c2cccc(F)c2)sc1C(=O)N[C@H]1CCCNC1 [AZD7762] (first compound 4 µM, partner dose 0.1 µM)",70.1
16,"CN1CCN(c2ccc3nc(-c4c(N)c5c(F)cccc5[nH]c4=O)[nH]c3c2)CC1 [Dovitinib] + Nc1ncn([C@H]2C[C@H](O)[C@@H](CO)O2)c(=O)n1 [decitabine] (first compound 0.5 µM, partner dose 0.5 µM)",68.7
17,"CN1CCN(c2ccc3nc(-c4c(N)c5c(F)cccc5[nH]c4=O)[nH]c3c2)CC1 [Dovitinib] + COc1cc2ncnc(Nc3ccc(Oc4ccccc4)cc3)c2cc1OC [SrcI1] (first compound 0.5 µM, partner dose 10 µM)",12.2
18,"CNC(=O)c1cc(Oc2ccc(NC(=O)Nc3ccc(Cl)c(C(F)(F)F)c3)cc2)ccn1 [sorafenib] + COc1cc2ncnc(Nc3ccc(Oc4ccccc4)cc3)c2cc1OC [SrcI1] (first compound 2 µM, partner dose 10 µM)",53.3
19,"CS(=O)(=O)CCNCc1ccc(-c2ccc3ncnc(Nc4ccc(OCc5cccc(F)c5)c(Cl)c4)c3c2)o1 [lapatinib] + COc1ccc(COc2ccc(Cc3cnc(N)nc3N)cc2OC)cc1 [GW2580] (first compound 4 µM, partner dose 5 µM)",25.5
20,"CN1CCN(c2ccc3nc(-c4c(N)c5c(F)cccc5[nH]c4=O)[nH]c3c2)CC1 [Dovitinib] + COc1ccc(COc2ccc(Cc3cnc(N)nc3N)cc2OC)cc1 [GW2580] (first compound 0.5 µM, partner dose 5 µM)",59.5
21,"C[C@@H](Oc1cc(-c2cnn(C3CCNCC3)c2)cnc1N)c1c(Cl)ccc(F)c1Cl [Crizotinib] + c1cc(-c2cnn3cc(-c4ccc(OCCN5CCCCC5)cc4)cnc23)ccn1 [Dorsomorphin] (first compound 1 µM, partner dose 2 µM)",42.4
22,"C=CCNC1=C2C[C@@H](C)C[C@H](OC)[C@H](O)[C@@H](C)/C=C(\C)[C@H](OC(N)=O)[C@@H](OC)/C=C\C=C(/C)C(=O)NC(=CC1=O)C2=O [Tanespimycin] + Cc1cc([N+](=O)[O-])ccc1NS(=O)(=O)c1cc(Cl)ccc1Cl [FH535] (first compound 0.01 µM, partner dose 5 µM)",24.1
23,"C=CCNC1=C2C[C@@H](C)C[C@H](OC)[C@H](O)[C@@H](C)/C=C(\C)[C@H](OC(N)=O)[C@@H](OC)/C=C\C=C(/C)C(=O)NC(=CC1=O)C2=O [Tanespimycin] + C[C@]1(c2nc3c(C(N)=O)cccc3[nH]2)CCCN1 [Veliparib] (first compound 0.01 µM, partner dose 7 µM)",63
